Measurements: the supplement of paper PMC8728848
The other results are listed elsewhere or left out.

Columns and labels:
Assay in all cases: glycan array binding signal (z-score within array); higher = stronger binding
Settings in all cases: glycan notation: IUPAC condensed, linker removed
[1] = target: Neu5Ac(a2-3)Gal(b1-3)GlcNAc6S
Procedure, shortened: (§1)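 Glycan array data came from 3228 arrays in the Consortium for Functional Glycomics database, and only arrays with an available protein sequence were kept. Glycan names were put into IUPAC-condensed notation, and columns mapping to the same glycan were averaged. The binding signal is a within-array Z-score, averaged across arrays of one protein sequence run at different concentrations or buffers and across linkers. A negative Z-score can be read as non-binding.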

[2] = target: Neu5Ac(a2-3)Gal(b1-3)[Fuc(a1-4)]GlcNAc
Procedure, shortened: as §1

[3] = target: Neu5Ac(a2-3)Gal(b1-3)[Fuc(a1-4)]GlcNAc(b1-3)Gal(b1-3)[Fuc(a1-4)]GlcNAc
Procedure, shortened: as §1

[4] = target: Neu5Ac(a2-3)Gal(b1-3)[Fuc(a1-4)]GlcNAc(b1-3)Gal(b1-4)[Fuc(a1-3)]GlcNAc
Procedure, shortened: as §1

[5] = target: Neu5Ac(a2-3)Gal(b1-3)[GlcNAc(b1-6)]GalNAc
Procedure, shortened: as §1

[6] = target: Neu5Ac(a2-3)Gal(b1-3)[Neu5Ac(a2-6)]GalNAc
Procedure, shortened: as §1

[7] = target: Neu5Ac(a2-3)Gal(b1-3)[Neu5Ac(a2-6)]GlcNAc(b1-3)[Fuc(a1-3)[Gal(b1-4)]GlcNAc(b1-6)]Gal(b1-4)Glc
Procedure, shortened: as §1

[8] = target: Neu5Ac(a2-3)Gal(b1-3)]Neu5Ac(a2-3)Gal(b1-4)]GlcNAc
Procedure, shortened: as §1

Neu5Ac(a2-3)Gal(b1-4)Glc = target: Neu5Ac(a2-3)Gal(b1-4)Glc
Procedure, shortened: as §1

[9] = target: Neu5Ac(a2-3)Gal(b1-4)GlcNAc
Procedure, shortened: as §1

[10] = target: Neu5Ac(a2-3)Gal(b1-4)GlcNAc(b1-2)Man
Procedure, shortened: as §1

[11] = target: Neu5Ac(a2-3)Gal(b1-4)GlcNAc(b1-2)Man(a1-3)[GlcNAc(b1-4)][Neu5Ac(a2-3)Gal(b1-4)GlcNAc(b1-2)Man(a1-6)]Man(b1-4)GlcNAc(b1-4)GlcNAc
Procedure, shortened: as §1

[12] = target: Neu5Ac(a2-3)Gal(b1-4)GlcNAc(b1-2)Man(a1-3)[Neu5Ac(a2-3)Gal(b1-4)GlcNAc(b1-2)Man(a1-6)]Man(b1-4)GlcNAc(b1-4)GlcNAc
Procedure, shortened: as §1

[13] = target: Neu5Ac(a2-3)Gal(b1-4)GlcNAc(b1-2)Man(a1-3)[Neu5Ac(a2-3)Gal(b1-4)GlcNAc(b1-2)Man(a1-6)]Man(b1-4)GlcNAc(b1-4)[Fuc(a1-6)]GlcNAc
Procedure, shortened: as §1

[14] = target: Neu5Ac(a2-3)Gal(b1-4)GlcNAc(b1-2)Man(a1-3)[Neu5Ac(a2-6)Gal(b1-4)GlcNAc(b1-2)Man(a1-6)]Man(b1-4)GlcNAc(b1-4)GlcNAc
Procedure, shortened: as §1

[15] = target: Neu5Ac(a2-3)Gal(b1-4)GlcNAc(b1-2)[Neu5Ac(a2-3)Gal(b1-4)GlcNAc(b1-4)]Man(a1-3)[GlcNAc(b1-4)][Neu5Ac(a2-3)Gal(b1-4)GlcNAc(b1-2)[Neu5Ac(a2-3)Gal(b1-4)GlcNAc(b1-6)]Man(a1-6)]Man(b1-4)GlcNAc(b1-4)GlcNAc
Procedure, shortened: as §1

[16] = target: Neu5Ac(a2-3)Gal(b1-4)GlcNAc(b1-2)[Neu5Ac(a2-3)Gal(b1-4)GlcNAc(b1-4)]Man(a1-3)[GlcNAc(b1-4)][Neu5Ac(a2-3)Gal(b1-4)GlcNAc(b1-4)Man(a1-6)]Man(b1-4)GlcNAc(b1-4)GlcNAc
Procedure, shortened: as §1

[17] = target: Neu5Ac(a2-3)Gal(b1-4)GlcNAc(b1-2)[Neu5Ac(a2-3)Gal(b1-4)GlcNAc(b1-6)]Man(a1-6)[Neu5Ac(a2-3)Gal(b1-4)GlcNAc(b1-2)Man(a1-3)]Man(b1-4)GlcNAc(b1-4)GlcNAc
Procedure, shortened: as §1

[18] = target: Neu5Ac(a2-3)Gal(b1-4)GlcNAc(b1-2)[Neu5Ac(a2-3)Gal(b1-4)GlcNAc(b1-6)]Man(a1-6)[Neu5Ac(a2-3)Gal(b1-4)GlcNAc(b1-2)Man(a1-3)][GlcNAc(b1-4)]Man(b1-4)GlcNAc(b1-4)GlcNAc
Procedure, shortened: as §1

[19] = target: Neu5Ac(a2-3)Gal(b1-4)GlcNAc(b1-3)Gal
Procedure, shortened: as §1

[20] = target: Neu5Ac(a2-3)Gal(b1-4)GlcNAc(b1-3)Gal(b1-3)GlcNAc
Procedure, shortened: as §1

[21] = target: Neu5Ac(a2-3)Gal(b1-4)GlcNAc(b1-3)Gal(b1-4)GlcNAc
Procedure, shortened: as §1

[22] = target: Neu5Ac(a2-3)Gal(b1-4)GlcNAc(b1-3)Gal(b1-4)GlcNAc(b1-2)Man(a1-3)[Neu5Ac(a2-3)Gal(b1-4)GlcNAc(b1-3)Gal(b1-4)GlcNAc(b1-2)Man(a1-6)]Man(b1-4)GlcNAc(b1-4)GlcNAc
Procedure, shortened: as §1

[23] = target: Neu5Ac(a2-3)Gal(b1-4)GlcNAc(b1-3)Gal(b1-4)GlcNAc(b1-3)Gal(b1-4)GlcNAc
Procedure, shortened: as §1

[24] = target: Neu5Ac(a2-3)Gal(b1-4)GlcNAc(b1-3)Gal(b1-4)GlcNAc(b1-3)Gal(b1-4)GlcNAc(b1-2)Man(a1-3)[Neu5Ac(a2-3)Gal(b1-4)GlcNAc(b1-3)Gal(b1-4)GlcNAc(b1-3)Gal(b1-4)GlcNAc(b1-2)Man(a1-6)]GalNAc
Procedure, shortened: as §1

[25] = target: Neu5Ac(a2-3)Gal(b1-4)GlcNAc(b1-3)Gal(b1-4)GlcNAc(b1-3)GalNAc
Procedure, shortened: as §1

[26] = target: Neu5Ac(a2-3)Gal(b1-4)GlcNAc(b1-3)Gal(b1-4)GlcNAc(b1-3)[Neu5Ac(a2-3)Gal(b1-4)GlcNAc(b1-3)Gal(b1-4)GlcNAc(b1-6)]GalNAc
Procedure, shortened: as §1

[27] = target: Neu5Ac(a2-3)Gal(b1-4)GlcNAc(b1-3)Gal(b1-4)GlcNAc(b1-6)[Gal(b1-3)]GalNAc
Procedure, shortened: as §1

[28] = target: Neu5Ac(a2-3)Gal(b1-4)GlcNAc(b1-3)Gal(b1-4)[Fuc(a1-3)]GlcNAc
Procedure, shortened: as §1

[29] = target: Neu5Ac(a2-3)Gal(b1-4)GlcNAc(b1-3)GalNAc
Procedure, shortened: as §1

[30] = target: Neu5Ac(a2-3)Gal(b1-4)GlcNAc(b1-3)[Neu5Ac(a2-3)Gal(b1-4)GlcNAc(b1-6)]GalNAc
Procedure, shortened: as §1

[31] = target: Neu5Ac(a2-3)Gal(b1-4)GlcNAc(b1-6)GalNAc
Procedure, shortened: as §1

[32] = target: Neu5Ac(a2-3)Gal(b1-4)GlcNAc(b1-6)[Gal(b1-3)]GalNAc
Procedure, shortened: as §1

[33] = target: Neu5Ac(a2-3)Gal(b1-4)GlcNAc(b1-6)[Neu5Ac(a2-3)Gal(b1-3)]GalNAc
Procedure, shortened: as §1

[34] = target: Neu5Ac(a2-3)Gal(b1-4)GlcNAc6S
Procedure, shortened: as §1

[35] = target: Neu5Ac(a2-3)Gal(b1-4)[Fuc(a1-3)]GlcNAc
Procedure, shortened: as §1

[36] = target: Neu5Ac(a2-3)Gal(b1-4)[Fuc(a1-3)]GlcNAc(b1-2)Man
Procedure, shortened: as §1

[37] = target: Neu5Ac(a2-3)Gal(b1-4)[Fuc(a1-3)]GlcNAc(b1-3)Gal
Procedure, shortened: as §1

[38] = target: Neu5Ac(a2-3)Gal(b1-4)[Fuc(a1-3)]GlcNAc(b1-3)Gal(b1-4)GlcNAc
Procedure, shortened: as §1

[39] = target: Neu5Ac(a2-3)Gal(b1-4)[Fuc(a1-3)]GlcNAc(b1-3)Gal(b1-4)[Fuc(a1-3)]GlcNAc(b1-3)Gal(b1-4)[Fuc(a1-3)]GlcNAc
Procedure, shortened: as §1

[40] = target: Neu5Ac(a2-3)Gal(b1-4)[Fuc(a1-3)]GlcNAc(b1-3)GalNAc
Procedure, shortened: as §1

[41] = target: Neu5Ac(a2-3)Gal(b1-4)[Fuc(a1-3)]GlcNAc(b1-6)[Gal(b1-3)]GalNAc
Procedure, shortened: as §1

[42] = target: Neu5Ac(a2-3)Gal(b1-4)[Fuc(a1-3)]GlcNAc(b1-6)[Neu5Ac(a2-3)Gal(b1-3)]GalNAc
Procedure, shortened: as §1

[43] = target: Neu5Ac(a2-3)Gal(b1-4)[Fuc(a1-3)]GlcNAc6S
Procedure, shortened: as §1

[44] = target: Neu5Ac(a2-3)Gal6S(b1-4)GlcNAc
Procedure, shortened: as §1

B1: Gal 3C (Homo sapiens), P17931 (protein)
chain: YGAPAGPLIVPYNLPLPGGVVPRMLITILGTVKPNANRIALDFQRGNDVAFHFNPRFNENNRRVIVCNTKLDNNWGREERQSVFPFESGKPFKIQVLVEPDHFKVAVNDAHLLQYNHRVKKLNEISKLGISGDIDLTSASYTMI
glycan array binding signal (z-score) [1]: 0.029 | glycan array binding signal (z-score) [2]: -0.303 | glycan array binding signal (z-score) [3]: -0.28 | glycan array binding signal (z-score) [4]: -0.25 | glycan array binding signal (z-score) [5]: -0.325 | glycan array binding signal (z-score) [6]: -0.3 | glycan array binding signal (z-score) [7]: -0.288 | glycan array binding signal (z-score) [8]: -0.314 | glycan array binding signal (z-score) (Neu5Ac(a2-3)Gal(b1-4)Glc): -0.126 | glycan array binding signal (z-score) [9]: -0.279 | glycan array binding signal (z-score) [10]: -0.168 | glycan array binding signal (z-score) [11]: -0.345 | glycan array binding signal (z-score) [12]: -0.347 | glycan array binding signal (z-score) [13]: -0.232 | glycan array binding signal (z-score) [14]: -0.296 | glycan array binding signal (z-score) [15]: -0.305 | glycan array binding signal (z-score) [16]: -0.332 | glycan array binding signal (z-score) [17]: -0.272 | glycan array binding signal (z-score) [18]: -0.336 | glycan array binding signal (z-score) [19]: -0.306 | glycan array binding signal (z-score) [20]: -0.27 | glycan array binding signal (z-score) [21]: -0.314 | glycan array binding signal (z-score) [22]: 0.403 | glycan array binding signal (z-score) [23]: 0.735 | glycan array binding signal (z-score) [24]: 0.386 | glycan array binding signal (z-score) [25]: -0.341 | glycan array binding signal (z-score) [26]: -0.01 | glycan array binding signal (z-score) [27]: -0.12 | glycan array binding signal (z-score) [28]: -0.354 | glycan array binding signal (z-score) [29]: -0.312 | glycan array binding signal (z-score) [30]: -0.236 | glycan array binding signal (z-score) [31]: -0.29 | glycan array binding signal (z-score) [32]: -0.315 | glycan array binding signal (z-score) [33]: -0.284 | glycan array binding signal (z-score) [34]: -0.236 | glycan array binding signal (z-score) [35]: -0.347 | glycan array binding signal (z-score) [36]: -0.388 | glycan array binding signal (z-score) [37]: -0.299 | glycan array binding signal (z-score) [38]: -0.191 | glycan array binding signal (z-score) [39]: -0.096 | glycan array binding signal (z-score) [40]: -0.047 | glycan array binding signal (z-score) [41]: -0.156 | glycan array binding signal (z-score) [42]: -0.274 | glycan array binding signal (z-score) [43]: -0.33 | glycan array binding signal (z-score) [44]: -0.279
